In all, about 44,000 compounds went through this assay and about 340 (0.77%) were called active. Inconclusive results (about 5%) are left out. Calls follow the shape of the dose curve; as a rule, active = well fitted inhibition curve with a large enough effect; inconclusive = small, poorly fitted or top-dose-only effect; inactive = flat fitted curve, though single readings scatter. The list shows a part of the results.
test: Acumen qHTS Assay for Inhibitors of the mTORC1 Signaling Pathway in MEF (Tsc2-/-, p53-/-) Cells: Sytravon; settings: phospho-rpS6 immunofluorescence/PI, 24 h; series mostly up to 38.3 µM; activity change, negative = inhibition: at the top concentration;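 also: plate controls were DMSO for no effect and rapamycin for full effect; nearly all actives have a fitted effect of over 50% in size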
How it was run: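 Readout is phospho-S6 Alexa 488 signal normalized to PI per well, reported as % active cells with thresholds set from rapamycin (7.5 nM) and DMSO controls. Cells: Tsc2-/-, p53-/- MEFs, 24 hrs compound at 37 C; PI cell number serves as viability.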

Activity change, negative = inhibition, inactive:
COc1ccc(NC(=O)Cn2c(=O)n(-c3ccc(OC)c(OC)c3)c(=O)c3ccccc32)cc1 -5.68%, Cc1noc(/C=C/c2cccs2)c1S(=O)(=O)N1CCC(C(=O)Nc2ccc(F)c(Cl)c2)CC1 -22.9%, Cc1cccc(N2CCN(c3ncnc4c3nc3n4CCCCC3)CC2)c1C 1.2%, CCOC(=O)c1ccc(NC(=O)c2c(-c3c(F)cccc3Cl)noc2C)cc1 -17.1%, CCC(=O)N1CCc2cc(Br)cc(S(=O)(=O)N3CCC(C(=O)NCCCOC(C)C)CC3)c21 2.83%, COC(=O)c1ccccc1NC(=O)c1ccc(COc2ccccc2Cl)o1 18.3%, COc1ccc(C2CC(=O)c3cc(-c4nc(-c5cccc(Cl)c5)cs4)c(=O)[nH]c3C2)cc1OC (stereo unspecified) 1.42%, CCOc1ccc(NC(=O)c2ccc(NC(=O)N3CCSc4ncccc43)cc2)cc1 -6.66%, CSc1ncc2c(n1)-c1ccccc1N(Cc1ccc(Cl)cc1)S2(=O)=O 5.75%, CCOC(=O)c1cnn(-c2ccc(C(=O)Nc3cc(OC)c(OC)c(OC)c3)cc2)c1N 0.628%, O=C(CSc1ccccc1)N1CCc2c([nH]c3ccccc23)C1c1ccc(F)cc1 (stereo unspecified) 2.7%, CC1CCN(S(=O)(=O)c2cn(CC(=O)Nc3cccc(C(F)(F)F)c3)c(=O)c3ccccc23)CC1 1.14%, O=C(Cn1cc(C(=O)c2ccco2)c2ccccc21)Nc1ccc(Br)cc1 8.64%, Nc1c(-c2nc(-c3cccs3)no2)nnn1-c1ccc(Cl)cc1 -2.72%, COc1cccc(C(=O)Nc2cccc(C(=O)OCc3cc(=O)n4nc(C5CC5)sc4n3)c2)c1 0%, CCn1c(C(=O)NCCc2ccc(OC)c(OC)c2)cc2sc(Cl)cc21 -5.3%, COC(=O)c1cc2oc3ccccc3c2n1Cc1nc(-c2ccc(OC)cc2)oc1C 1.01%, CCC1CCCCN1C(=O)Cn1c(=O)n(CCCCCC(=O)NCc2ccccc2)c(=O)c2sccc21 (stereo unspecified) -7.36%, CSc1ncc(Cl)c(C(=O)Nc2ccc(NC(C)=O)cc2)n1 2.73%, COc1ccc(Cl)cc1NC(=O)c1c(NCc2ccc(C)o2)sc2c1CCCCC2 -5.99%, CCCCNc1nc(Oc2ccc(OCC)nn2)nc(N2CCOCC2)n1 1.7%, COc1cccc(NC(=O)c2ccc3nc(CCc4ccccc4)oc3c2)c1 -8.44%, CCCn1c2ccccc2c2cnn(CC(=O)N(C)c3ccc(F)cc3)c(=O)c21 0.0836%, COc1cccc(CSc2nc3ccccc3c3nc(CCn4c(C)nc5ccccc54)nn23)c1 -4.03%, Cc1ccc(-n2ncc(C(=O)NCc3ccccc3C)c2-n2cccc2)cc1 -4.64%, O=C(NCc1ccc2c(c1)CCN2C(=O)c1ccc(F)cc1)c1cc2ccccc2[nH]1 -7.09%, COc1ccc(-c2[nH]c3ccccc3c2SCCNC(=O)c2cc(OC)c(OC)c(OC)c2)cc1 1.35%, COc1ccccc1CNC(=O)CCC(=O)N1CC2CCCN2c2ccccc21 (stereo unspecified) -2.81%, COc1ccc(SCc2cc(=O)c3cc(Cl)ccc3[nH]2)cc1 -14.4%, c1ccc(CNc2nc3c(-c4ccccc4)nnn3c3ccccc23)cc1 -12%, O=C(Cc1ccc(Cl)cc1)Nc1ccc2nn(-c3ccc(Cl)cc3)nc2c1 -7.33%, Cc1cccc(C)c1OCCn1c(C2CC(=O)N(c3cccc(Cl)c3)C2)nc2ccccc21 (stereo unspecified) 1.38%, COc1cccc(NC(=O)C2CCCN(S(=O)(=O)c3c(C)nn(C)c3C)C2)c1 (stereo unspecified) -11.1%, CCc1ccccc1N1C(=O)N(Cc2ccc(C#N)cc2)c2ccccc2S1(=O)=O -0.132%, CC(C)Sc1oc(-c2cccs2)nc1S(=O)(=O)c1ccc(Cl)cc1 -29.1%, CCOc1ccc(OCC)c(NS(=O)(=O)c2cc(-c3cc(C)no3)ccc2C)c1 -3.56%, Cc1ccc(CNC(=O)c2ccc(Cn3c(=O)c4ccccc4n(CC(=O)Nc4ccc(C)cc4C)c3=O)cc2)cc1 -2.52%, CCOc1ccc(S(=O)(=O)NCCc2sc3nc(-c4ccc(F)cc4)nn3c2C)cc1 -6.75%, CCn1c2ccccc2c2cc(CN3CCN(Cc4ccccc4F)CC3)ccc21 -9.36%, CCOc1ccccc1NC(=O)C(=O)NCCc1sc(-c2cccc(F)c2)nc1C 2.4%, CCc1ccc(NCc2cc3cc4c(cc3n(CC(=O)Nc3ccc(C)cc3)c2=O)OCO4)cc1 -5.11%, CCC(=O)Oc1ccc(/C=C(\C#N)c2nc3ccccc3[nH]2)cc1OC 16.2%, Cc1oc2ncnc(N3CCCCC3)c2c1C(=O)N1CCN(c2cccc(C(F)(F)F)c2)CC1 1.72%, CCOc1ccc(NC(=O)NCc2c(-n3cccc3)sc3c2CCCC3)cc1 -1.75%, Cc1ccc(Nc2c(-c3cccs3)nc3nc(C)cc(C)n23)cc1 -3.39%, CCOc1ccc(NC(=O)C2CCCN(S(=O)(=O)c3cccc4nonc34)C2)cc1 (stereo unspecified) 0.777%, CC(=O)c1ccc(NC(=O)CSc2nnc3ccc(-c4ccc(Cl)cc4)nn23)cc1 -0.529%, CCOc1ccc(NC(=O)CSc2nccn2Cc2ccco2)cc1 -3.29%, COc1ccc(-c2nc3ccccc3s2)cc1NC(=O)COc1ccc(C)cc1 0.197%, CCC1CCCCN1S(=O)(=O)c1ccc(C(=O)Nc2sc3c(c2C(=O)NC)CCC3)cc1 (stereo unspecified) -2.88%, CCOCCCN1C(=O)CN(C2CCCCCC2)C(=O)C1c1ccc(OC(C)C)c(OC)c1 (stereo unspecified) 3.06%, COc1ccc(OCC(=O)OCc2cc(=O)n3cc(C)sc3n2)cc1 -3.5%, CCc1ccccc1NC(=O)c1ccc2c(O)c(S(=O)(=O)c3ccccc3)c(=O)[nH]c2c1 -1.96%, COc1ccc(NC(=O)c2cc3nc(-c4ccc(C)c(C)c4)cc(C(F)(F)F)n3n2)cc1 7.71%, COc1ccccc1CNC(=O)c1oc2ccc(S(=O)(=O)N3CCCCC3)cc2c1C 7.04%, Cc1ccc(CSc2ncc(Cl)c(C(=O)NCCc3ccc(S(N)(=O)=O)cc3)n2)cc1 -4.01%, CCOC(=O)C1CCN(C(=O)CCS(=O)(=O)c2cc3c(cc2Cl)NC(=O)CO3)CC1 9.68%, Cc1ccc(N(CC(=O)NCc2ccc(Cl)cc2)S(=O)(=O)N(C)C)cc1 0.909%, COc1ccc(NC(=O)CSc2nc(-c3ccc(OC)cc3)[nH]c2-c2ccc(OC)cc2)cc1 2.42%, COc1ccc(-c2cc(OC(=O)c3ccc(Cl)cc3)c3c(C)oc(C)c3c(=O)c2)cc1 -1.28%, Cc1ccc(C(=O)Nc2cccc(-c3nc4cccnc4s3)c2C)cc1 5.63%, Cc1cccc(CN2C(=O)c3ccccc3S(=O)(=O)c3ccc(C(=O)NCCC4=CCCCC4)cc32)c1 0.995%, CCCN1CCN(CCNC(=O)Nc2ccc(OC)cc2OC)CC1 3.16%, O=C(CC1C(=O)N(c2ccccc2)C(=O)N1CCC1=CCCCC1)Nc1ccc(F)cc1 (stereo unspecified) -1.81%, Cc1ccccc1NC(=O)CSc1nc(-c2ccccc2C)nc2cc(=O)[nH]n12 -5.6%, COCCNC(=O)Cn1nc(N2CCN(c3ccccc3OC)CC2)ccc1=O -7.45%, CCOc1ccc(NC(=O)N2CCN(S(=O)(=O)c3ccc4c(ccn4C)c3)CC2)cc1 0.895%, COc1ccccc1N(CC(=O)NCCSCc1ccccc1)S(=O)(=O)c1ccc(C)cc1 6.86%, CC(=O)N1CCN(c2csc3ccc(F)cc3c2=O)CC1 -6.28%, CCc1ccc(C(=O)c2cn(CC(=O)Nc3ccc(F)cc3)c3ccc(OC)cc3c2=O)cc1 0.378%, COc1ccc(NC(=O)Cn2c(=O)n(C(C)C)c(=O)c3oc4ccccc4c32)cc1Cl -1.59%, O=C1CN(C(=O)Cc2ccc(F)cc2)C(c2ccccc2)c2cc(Cl)ccc2N1 (stereo unspecified) 0%, Cc1nn(-c2ccccc2)c(OC(=O)C(C)C)c1Sc1ccccc1 -0.98%, CCc1ccccc1N(C)C(=O)Cc1c(C(=O)O)c(C)cn1C -3.78%, Brc1cccc(CNCCSc2nnnn2-c2ccccc2)c1 -0.501%, COc1ccc(-c2cc(C(C)=O)c(C)n2CCC(=O)NCc2ccccc2OC)cc1 0.26%, Cc1cc(C)c(NC(=O)C(C)n2nc(-c3ccc(C)c(C)c3)ccc2=O)c(C)c1 (stereo unspecified) 0.438%, Cc1ccc(NC(=O)Cc2ccc(-n3c(C)nc4cccnc43)cc2)cc1C -8.76%, Cc1cc(C)cc(OCC(=O)NCCc2nc3ccccc3[nH]2)c1 5.1%, Cc1ccc(Cl)cc1NC(=O)C(C)n1nnc2sc(-c3ccccc3)cc2c1=O (stereo unspecified) 1.25%, CCOC(=O)c1cc(-c2ccccc2)n(CCCC(=O)Nc2ccc(C(C)C)cc2)c1C -21.1%, CCCCOc1ccc(S(=O)(=O)Nc2ccc(-c3ccc(N4CCCCCC4)nn3)cc2)cc1 0.0286%, COc1cccc(CNC(=O)CCc2cn(Cc3ccccc3Cl)c3ccccc23)c1 -3.71%, CCOC(=O)c1c(C)oc2ncnc(N3CCN(c4ccccc4OC)CC3)c12 2.09%, COc1ccc(Cn2c(SCc3ccc(C(=O)NC4CCCC4)cc3)nc3ccncc32)cc1 -1.97%, COc1cc(OC)cc(C(=O)Nc2ccccc2-c2nc3ccccc3s2)c1 -2.71%, CN(C)c1ccc(C(CNC(=O)c2ccc(C(C)(C)C)cc2)N2CCOCC2)cc1 (stereo unspecified) 5.11%, COc1ccc2[nH]c(C)c(CCNS(=O)(=O)c3cc(F)ccc3OC)c2c1 -0.128%, CCCOc1cccc(C(=O)Nc2cccc(NC(=O)c3ccc(C(C)(C)C)cc3)c2)c1 -5.05%, COc1ccc(CCNC(=O)C2(c3cccs3)CCOCC2)cc1OC -0.447%, CCOc1ccc(OC(=O)c2cn(-c3ccc(C)cc3)c(=O)c3ccccc23)cc1 -3.43%, COc1ccc(-c2nc3c4ccccc4n(CC(=O)Nc4cc(F)ccc4F)c(=O)n3n2)cc1 -0.427%, Cc1coc2cc3oc(=O)c(CCC(=O)NCc4ccc(Cl)cc4)c(C)c3cc12 1.7%, COc1ccc(-c2cc(C(F)(F)F)n3nc(C(=O)Nc4cc(Cl)cc(Cl)c4)cc3n2)cc1 1.12%, COc1cc(-c2ccno2)ccc1S(=O)(=O)N1CCN(c2ccc(C(C)=O)cc2)CC1 -10.5%, CCCCC(=O)Nc1ccccc1C(=O)OCc1cc(=O)n2nc(C3CCCCC3)sc2n1 3.82%

— PubChem BioAssay AID493208 (National Center for Advancing Translational Sciences (NCATS), 2011)
